Assay results as given in PubChem BioAssay AID1240 (Sanford-Burnham Center for Chemical Genomics, 2008).
About 800 (1.6%) of roughly 50,000 compounds showed an effect of 50% or more. This is one part of the list.

Each molecule was assayed against Bcl-2-like protein 10 (Homo sapiens) (UniProt Q9HD36) (assay: Phenotype converters, Bcl-B/TR3 peptide binding displacement, primary biochemical FP (AID 1240;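 note: 0% = Bcl-B with tracer peptide and DMSO and 100% = tracer peptide lacking Bcl-B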)). Details: GST-Bcl-B / FITC-TR3 peptide fluorescence polarization; stronger effect = higher value; compound at 3.75 mg/L.
Sequence of UniProt Q9HD36 (Q9HD36 whole entry, looked up): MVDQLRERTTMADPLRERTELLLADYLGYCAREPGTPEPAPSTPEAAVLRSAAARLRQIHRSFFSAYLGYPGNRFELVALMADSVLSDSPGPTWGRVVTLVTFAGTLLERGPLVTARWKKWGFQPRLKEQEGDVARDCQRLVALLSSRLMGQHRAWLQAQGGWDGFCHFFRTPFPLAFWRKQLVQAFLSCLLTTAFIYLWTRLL
For `CN1C(=O)C(=O)c2cc(Br)ccc21`, the displacement was 19.2%. In the case of `CCOc1ccc(NC(=O)CC2S/C(=N\N=C(/C)c3cccc(NC(C)=O)c3)NC2=O)cc1` (stereo not drawn), the displacement is reported as -11%. Work on `Cc1ccc2nc(-c3nonc3N)[nH]c2c1` yielded a displacement of 3.2%. `Cc1sc2nc(SCC(=O)NCCCN3CCOCC3)n(-c3ccccc3)c(=O)c2c1C` gave a displacement of 0.4%. With `COc1ccccc1/C=N/n1cnnc1` the displacement was 17.6%. In the case of `CCCCNCCCCOc1cccc(Cl)c1`, the displacement is reported as 11.8%. With `COc1ccccc1/C=C1\SC(N2CCCCC2)=NC1=O` the displacement was -4.9%. In the case of `CC(C1CC1)N(Cc1ccccc1)C(=O)c1ccc(F)cc1` (stereo not drawn), the displacement is reported as 9.2%. `O=C(NC(C(=O)c1ccccc1)N1CCCC1)c1ccco1` (stereo not drawn) gave a displacement of 0.8%. With `O=C(/C=C/c1ccc(-c2ccc(Cl)cc2Cl)o1)Nc1ccc(N2CCOCC2)cc1` the displacement was 83%. Molecule `COc1ccccc1NC(=O)c1ccccc1NC(=O)c1ccccc1C` has a displacement of -7.2%. `Cc1ccc(/C(O)=C2/C(=O)C(=O)N(CCCCCC(=O)O)C2c2cccc(F)c2)cc1` (stereo not drawn) gave a displacement of -3.4%. `C=CCN1C(=O)/C(=C\c2ccc(CC)cc2)C(=O)NC1=S` was tested, and the displacement was -27.5%. `COc1cc(/C=C2\C(=O)NC(=S)N(c3cccc(Br)c3)C2=O)cc(Cl)c1O` was tested, and the displacement was -1.6%. Molecule `CC1(C)CC(NC(=O)CCc2ccccc2)CC(C)(C)N1` has a displacement of 12.3%. `CC(C)C1=NN2C(=N)/C(=C/c3ccc(-c4cccc(C(=O)O)c4)o3)C(=O)N=C2S1` was tested, and the displacement was -26.4%. Molecule `Cc1cccc(N2CCC(N=CN(C)C)=N2)c1` has a displacement of 2.2%. Molecule `CCOc1ccc(C(=O)COC(=O)CC)cc1` has a displacement of -2.8%. Work on `CCOc1ccc(NC2=C(Cl)C(=O)N(c3cccc(Cl)c3)C2=O)cc1` yielded a displacement of 10.1%. `O=C(c1ccc(N2CCNCC2)cc1)c1cccc(F)c1` showed a displacement of -8.3%. `Cc1ccc(C23CC4CC(C2)CC(c2csc(N)n2)(C4)C3)cc1` gave a displacement of -4.6%. For `S=c1[nH]cnc2sc3c(c12)CCC3`, the displacement was -9.1%. `Cc1ccc(/C(O)=C2\C(=O)C(=O)N(CCCC(=O)O)C2c2ccc(Cl)cc2)cc1` (stereo not drawn) gave a displacement of -11.7%. With `Cc1cc(C)n(C(=O)C(C)Oc2ccc(Cl)cc2)n1` (stereo not drawn) the displacement was -4.4%. For `CSc1ccc(Cl)c(C(=O)Nc2ccc(Cl)cn2)c1`, the displacement was -39.3%. Molecule `COc1ccccc1N1C(=O)CC(N2CCN(C(c3ccccc3)c3ccccc3)CC2)C1=O` (stereo not drawn) has a displacement of 10.6%. `CCOc1ccccc1N/C(=N\S(=O)(=O)c1ccc(C)cc1)Nc1nc(C)cc(C)n1` gave a displacement of -4%. For `CCOC(=O)c1ccc(-n2c(-c3ccccc3)nc3ccccc3c2=O)cc1`, the displacement was -2.3%. Molecule `COC(=O)c1c(C)oc2ccc(OCC(=O)c3ccccc3)cc12` has a displacement of 13.2%. For `COc1ccc(OC)c(NC2=NS(=O)(=O)c3cc([N+](=O)[O-])ccc32)c1`, the displacement was 7.9%. `CC1(C)C(c2ccccc2)=NC(c2ccc(C(F)(F)F)cc2)N1O` (stereo not drawn) was tested, and the displacement was -16.9%. Molecule `O=C(O)C1C(C(=O)Nc2ccc(Br)cc2)C2C=CC1C21CC1` (stereo not drawn) has a displacement of -7.7%. `CC(=O)c1ccc(-n2c(C)ccc2C)cc1` showed a displacement of 2.2%. Molecule `CCOc1cc(C=C2C(=O)NC(=O)NC2=O)ccc1OCCOc1ccccc1C` has a displacement of 10.3%. `Nc1cc(-c2cccc(Br)c2)nn1-c1ccccc1` was tested, and the displacement was -9.8%. Molecule `O=C1NC(=S)NC(=O)C1=Cc1ccc(OCCOc2ccccc2)cc1` has a displacement of -5.2%. With `COc1cccc(N2C(=O)C(=O)/C(=C(\O)c3ccccc3)C2c2cccc(F)c2)c1` (stereo not drawn) the displacement was -11.6%. In the case of `COc1ccccc1CNC(=O)c1cccc(Cl)c1`, the displacement is reported as -6.1%. With `Cc1n[nH]c(C)c1Sc1ccccc1N=Cc1cc(Cl)ccc1O` the displacement was 0%. For `CCCN1CCC(=NNC(=O)c2cccc(Cl)c2)CC1`, the displacement was 3.7%. In the case of `C=CCN1C(=O)/C(=C\c2ccc(-c3ccccc3Cl)o2)SC1=S`, the displacement is reported as 149%. In the case of `O=C(Nn1c(=O)c2cc3c(=O)n(NC(=O)c4ccc(O)cc4)c(=O)c3cc2c1=O)c1ccc(O)cc1`, the displacement is reported as 0.1%. In the case of `COc1cc(NC(=O)c2cnn3c2NC(c2cc(OC)c(OC)c(OC)c2)CC3C(F)(F)F)cc([N+](=O)[O-])c1` (stereo not drawn), the displacement is reported as 8.1%. Molecule `CCC(=S)/C=C1\Sc2ccc(OC)cc2N1CCCS(=O)(=O)O` has a displacement of 5.8%. Molecule `CN(C)c1ccc(C=NC2=NN(c3ccccc3)CC2)cc1` has a displacement of 19%. For `CC(C)(C)C(=O)CN1C2=NCCN2c2ccccc21`, the displacement was -12.5%. With `NC(=O)c1ccc(NC(=O)CCN2C(=O)c3cccc([N+](=O)[O-])c3C2=O)cc1` the displacement was 4.5%. With `COc1cc2c(cc1OC)C(c1cccc([N+](=O)[O-])c1)=NCC2` the displacement was 2.5%. `O=C(Nc1ccc(Cl)cc1)/C(=C\c1ccccc1Cl)NC(=O)c1ccccc1` showed a displacement of 0.8%. In the case of `COc1ccc(C(=O)N2CCN(Cc3cccc(C)c3)CC2)cc1`, the displacement is reported as -21.6%. Work on `Cc1ccc2nc(-c3ccc(OCC(=O)N/N=C/c4ccc([N+](=O)[O-])o4)cc3)cc(-c3ccccc3)c2c1` yielded a displacement of -16.7%. `CCC1CCc2c(sc(NC(=O)c3ccccc3Br)c2C(=O)OC)C1` (stereo not drawn) gave a displacement of 0.1%. `COc1cccc(N2C(=O)/C(=C/c3ccccc3C(=O)O)SC2=S)c1` gave a displacement of -4.7%. Molecule `COc1ccc(CNC(=O)CSc2nc(-c3ccccc3)c(-c3ccccc3)[nH]2)cc1` has a displacement of -1.3%. Molecule `Cc1cc(N2C(=O)NC(=O)/C(=C\c3ccc(C(=O)O)cc3)C2=O)ccc1Br` has a displacement of -8.3%. For `CCc1ccccc1NC(=O)c1nn2c(c1Cl)NC(c1ccc(C)cc1)CC2C(F)(F)F` (stereo not drawn), the displacement was -3.5%. For `NS(=O)(=O)c1cccc(NC(=O)COc2ccccc2)c1`, the displacement was 2.5%. `COc1ccccc1C1/C(=C(\O)c2ccccc2)C(=O)C(=O)N1CCN(C)C` (stereo not drawn) was tested, and the displacement was -22.8%. In the case of `O=C(NCC1OCCc2ccccc21)c1ccco1` (stereo not drawn), the displacement is reported as -6.5%. `Cc1cc(/C=C2\C(=O)NC(=S)N(c3ccc(Cl)cc3)C2=O)c(C)n1C` showed a displacement of 29.5%. For `O=C(Nc1ccccc1C(=O)c1ccccc1)c1ccccc1`, the displacement was -6.4%. For `Cc1ccc(S(=O)(=O)Oc2ccc(/C=C3\SC(N)=NC3=O)cc2Br)cc1`, the displacement was 1.8%. For `CCOc1ccc(C(=O)Nc2ccc(-c3nc4ccc(C)cc4o3)cc2)cc1Cl`, the displacement was 104%. `S=c1[nH]nc(CSc2nc3ccccc3s2)n1-c1ccccc1` was tested, and the displacement was 14.2%. With `CCOC(=O)C1=NN(c2ccccc2)C(=O)C1OC(C)=O` (stereo not drawn) the displacement was 12.9%. `Clc1ccc2nc(N/N=C/c3ccc4ncccc4c3)nc(-c3ccccc3)c2c1` was tested, and the displacement was -2.6%. Molecule `CC(=O)c1ccc(NC(=O)c2cnn3c(C(F)(F)F)cc(-c4cccs4)nc23)cc1` has a displacement of 7.3%. For `COc1ccc(C(=O)CC(=O)C(C)(C)C)cc1`, the displacement was 15.1%. Work on `O=C(c1ccccc1)N1CCN(c2ncnc3c2cnn3-c2ccccc2)CC1` yielded a displacement of 3.8%. `O=C1NN(c2cccc(Cl)c2)C(=O)/C1=C\c1ccc(F)cc1` showed a displacement of 8.1%. With `COc1cc(N/N=C(\C)c2ccc(I)cc2)ncn1` the displacement was -8.4%. `COc1ccc(N2C(=O)/C(=C\c3cc(C)n(-c4ccccc4)c3C)SC2=S)cc1` was tested, and the displacement was 27.3%. In the case of `O=C1S/C(=C\c2ccc(Br)cc2)C(=O)N1c1ccc(Cl)cc1`, the displacement is reported as -3.3%. With `O=C1/C(=C/c2ccccc2[N+](=O)[O-])SC(=S)N1c1cccc(Br)c1` the displacement was 11.9%. With `O=c1[nH]c(O)c(C=Nc2ccccc2C(F)(F)F)c(=O)[nH]1` the displacement was 47.5%. For `CCOC(=O)c1cccc(NC(=O)c2ccncc2)c1`, the displacement was 9.1%. In the case of `CC(=O)N1CCCC1C(=O)Nc1ccc(C)cc1` (stereo not drawn), the displacement is reported as 5.8%. Molecule `CC1=C(C(=O)OC2CCCCC2)C(c2ccccc2Br)NC(=O)N1` (stereo not drawn) has a displacement of 0.2%. `O=CN1Cc2ccccc2-c2ccccc2C1` was tested, and the displacement was 9.1%. Work on `OC1CN=C2CCCc3c2n(c2ccc(Cl)cc32)C1` (stereo not drawn) yielded a displacement of 1.2%. `CN1CCN(C(=O)c2ccc(F)c(F)c2)CC1` gave a displacement of -9%. Molecule `COc1ccccc1C/C(N)=N/OC(=O)COc1ccc2ccccc2c1` has a displacement of 5.6%. Work on `COc1ccc(S(=O)(=O)Nc2cc([N+](=O)[O-])ccc2OC)cc1` yielded a displacement of 6.6%. With `COCCOC(=O)c1c(C)oc2ccc(OCc3cccc(F)c3)cc12` the displacement was 8.3%. `O=C(Cn1c2ccccc2c(=O)c2ccccc21)N/N=C/c1ccc(N2CCCC2)c([N+](=O)[O-])c1` gave a displacement of 0.2%. Molecule `O=C(CSc1ccc(/C=N/NC(=O)c2ccncc2)o1)Nc1ccccc1` has a displacement of 8.9%. `O=C(CCNc1ccc(F)cc1)c1cccs1` was tested, and the displacement was 5.2%. `COc1ccc(/C(C#N)=C\N2CCOCC2)c(OC)c1` was tested, and the displacement was -19.5%. In the case of `CCCc1nn2c(N)c(/C=C3\C=C(Br)C=CC3=O)c(=O)nc2s1`, the displacement is reported as 6.1%. Work on `O=C(Nc1nc(-c2ccc(Br)cc2)cs1)c1cc2ccccc2o1` yielded a displacement of -0.4%. `CCOC(=O)c1c(NC(=O)c2cc3cc(Br)ccc3oc2=O)sc(C(C)=O)c1C` was tested, and the displacement was 31.5%. `O=C1/C(=C/c2ccc(-c3cccc([N+](=O)[O-])c3)o2)SC(=S)N1Cc1ccco1` was tested, and the displacement was 9.9%. In the case of `O=C(N/N=C/c1ccc(Cl)c([N+](=O)[O-])c1)c1cc2ccccc2o1`, the displacement is reported as 1.4%. Molecule `Cc1c(Cl)cccc1NC(=O)/C(C#N)=C/c1ccc(I)o1` has a displacement of -14.1%. With `O=C(Nc1ncc(Cc2cccc3ccccc23)s1)c1ccc(Cl)cc1` the displacement was -3.1%. Molecule `Cc1ccc(NC(=O)c2cccc(Cl)c2Cl)c([N+](=O)[O-])c1` has a displacement of 6.6%. Work on `CC(C)(C)c1ccc2[nH]c3c(c2c1)CCCC3=O` yielded a displacement of 0.7%. With `CCc1nnc(NS(=O)(=O)c2ccc(NC(=O)c3cc4ccccc4cc3OC)cc2)s1` the displacement was 12%. `C/C(=N\N=C1\NC(=O)C(CC(=O)Nc2ccc(C(=O)O)cc2)S1)c1ccc([N+](=O)[O-])cc1` (stereo not drawn) was tested, and the displacement was 13.2%. `COCCOC(=O)c1ccc(NC(=O)c2cc3ccccc3oc2=O)cc1` gave a displacement of -5.9%. Work on `O=C(CCNC(=O)OCc1ccccc1)Oc1cc2oc(=O)cc(-c3ccccc3)c2cc1Cl` yielded a displacement of -0.2%. With `O=C(O)c1cc(NC(=O)c2ccc(F)cc2)cc(NC(=O)c2ccc(F)cc2)c1` the displacement was -2%. For `CCOC(=O)C1=C(O)/C(=C\c2ccc(OC)cc2)N=C1C`, the displacement was 4.4%. For `CC(=O)c1c(C)n(-c2ccc(N(C)C)cc2)c2ccc(O)cc12`, the displacement was 0.4%. For `O=C1CC(c2ccccc2)CC2=C1C(c1cccc3ccccc13)Nc1ccccc1N2` (stereo not drawn), the displacement was 6.1%. In the case of `CC1=NN(C(=S)Nc2ccccc2)C(C)(C)C1`, the displacement is reported as 0.5%. In the case of `COc1ccc(Br)cc1C(=O)Nc1ccc(C)cc1[N+](=O)[O-]`, the displacement is reported as 27.4%. `Cc1ccc(C(=O)N2CCC(C(N)=O)CC2)cc1[N+](=O)[O-]` showed a displacement of -0.2%.
